# Laboratory results reported in PubChem BioAssay AID1745853 (National Center for Advancing Translational Sciences (NCATS), 2022).
# Some of the results follow. Shown are side measurements of this screen, not its main read-out; they come without a call.
# Assays:
# Test in all cases: Primary Screen for Target Class Profiling of Small Molecule Inhibitors of Methyltransferases
# [1] = target: Glycine N-methyltransferase (Homo sapiens) (UniProt Q14749); conditions: purified enzyme, MTase-Glo SAH luminescence; measured here: GNMT inhibition; at 40 µM; stronger effect = lower value
# How it was run: (§1)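 Each enzyme was assayed with SAM and its substrate. SAH formation detected by MTase-Glo luminescence; single-point 40 uM screen[…].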
# [2] = target: Guanidinoacetate N-methyltransferase (Homo sapiens) (UniProt Q14353); conditions: purified enzyme, MTase-Glo SAH luminescence; measured here: GAMT inhibition; at 40 µM; stronger effect = lower value
# How it was run: as §1
# [3] = target: Histamine N-methyltransferase (Homo sapiens) (UniProt P50135); conditions: purified enzyme, MTase-Glo SAH luminescence; measured here: HNMT inhibition; at 40 µM; stronger effect = lower value
# How it was run: as §1
# [4] = target: Nicotinamide N-methyltransferase (Homo sapiens) (UniProt P40261); conditions: purified enzyme, MTase-Glo SAH luminescence; measured here: NNMT inhibition; at 40 µM; stronger effect = lower value
# How it was run: as §1
# [5] = target: Phenylethanolamine N-methyltransferase (Homo sapiens) (UniProt P11086); conditions: purified enzyme, MTase-Glo SAH luminescence; measured here: PNMT inhibition; at 40 µM; stronger effect = lower value
# How it was run: as §1
# On the % scale 0 is the no-effect control and ±100 the full control effect.
SMILES,"activity change, negative = inhibition [1]","activity change, negative = inhibition [2]","activity change, negative = inhibition [3]","activity change, negative = inhibition [4]","activity change, negative = inhibition [5]"
CCC(C)NC(=O)c1ccc2c(=O)n(C)c3nn(Cc4cccc(C)c4)c(=O)n3c2c1 (stereo not given),1.12%,0%,7.68%,-6.46%,5.76%
CC(C)(C)NCC(O)c1cc(O)cc(O)c1 (stereo not given),1.53%,12.2%,14.3%,-3.13%,-0.913%
O=C(N[C@@H]1CN(Cc2ccccc2)C[C@H]1CO)c1cccnc1,-1.59%,-0.862%,-0.037%,5.57%,1.64%
CC[N+](CC)(CC)CCOc1cccc(OCC[N+](CC)(CC)CC)c1OCC[N+](CC)(CC)CC,-22.2%,1.64%,-13.6%,-6.15%,7.22%
CC1CCC(NC(=O)C2(C)Cn3c(ccc3-c3ccccc3)C(=O)N2CCc2ccccc2)CC1 (stereo not given),5.43%,1.28%,3.24%,7.97%,4.01%
COc1ccc(-c2cc3n(n2)CC(C)(C(=O)NCc2ccccc2OC)N(Cc2ccc(C)cc2)C3=O)cc1 (stereo not given),5.8%,0%,7.72%,1.6%,0.473%
COc1cccc(NC(=O)CCc2nnc3n(Cc4ccc(Cl)cc4)c(=O)c4ccccc4n23)c1,0.145%,0%,-5.97%,7.55%,-3.22%
COCCOCc1nc(C2CCCCN2C(=O)NCc2ccc(F)cc2)no1 (stereo not given),-5.13%,-8.06%,-2.8%,-7.75%,-0.094%
COc1ccc(CN2C(=O)c3cc(-c4ccc(OC)cc4)nn3CC2(C)C(=O)NCc2ccccc2)cc1 (stereo not given),6.92%,0%,8.33%,5.51%,0.662%
CC1(C(=O)NC2CCCCC2)Cn2nc(-c3ccco3)cc2C(=O)N1Cc1ccccc1Cl (stereo not given),0.475%,0%,5.67%,-7.97%,-0.318%
C=C(c1ccc(C(=O)O)cc1)c1cc2c(cc1C)C(C)(C)CCC2(C)C,-2.43%,-12.3%,-7.47%,-45.8%,-12%
COc1ccc(C2=NOC3(CCN(Cc4cccn4C)C3)C2)cc1 (stereo not given),-5.43%,-6.43%,-14%,-8.38%,-33.7%
NC(=O)[C@@H]1CC[C@H](c2ccc(OCc3ccccc3F)cc2)N1,1.67%,6.42%,3.82%,-9.22%,-0.31%
O=C(NCc1ccc(F)cc1)N1CCC(OC2CCN(Cc3ccccc3)CC2)CC1,-2.86%,0.717%,-21.9%,-6.58%,-8.31%
CCCN(CCC)CCN1C(=O)c2cc3sccc3n2CC1(C)C(=O)NC1CCCCCC1 (stereo not given),6.47%,-4.87%,-6.33%,-0.12%,4.5%
CN1C(=O)c2cc(C(=O)N3CCCCC3)nn2CC1(C)C(=O)NC1CCCCCC1 (stereo not given),4.36%,0%,9.77%,10.8%,4.64%
CCN1C(=O)c2cc(C(=O)NCc3ccccc3Cl)nn2CC1(C)C(=O)NC1CCCC1 (stereo not given),2.59%,3.64%,3.87%,-0.947%,-1.82%
Cc1ccccc1NC(=O)Cn1nc2n(C(C)C)c(=O)c3ccc(C(=O)NC4CCCC4)cc3n2c1=O,-0.081%,5.89%,-1.14%,-2.38%,-8.56%
COc1ccc(-c2cc3n(n2)CC(C)(C(=O)NCc2ccccc2OC)N(c2ccc(Cl)cc2C)C3=O)cc1 (stereo not given),6.74%,0%,8.47%,-1.57%,1.9%
Cc1ccc2n1CCN(C(=O)Nc1cccc(C(F)(F)F)c1)C2C(C)C (stereo not given),11%,0%,-3.83%,-6.75%,0.149%
CCN1CCN(CCCNC(=O)c2cc3n(n2)CC(C)(C(=O)NC2CCCCC2)N(C)C3=O)CC1 (stereo not given),-1.79%,3.14%,-3.63%,-2.25%,0.245%
CN(C)CCCCC(=O)Nc1ccc(NC(=S)NC(=O)c2ccc(C(C)(C)C)cc2)cc1,-2.39%,10%,-23.6%,-25.2%,3.84%
COc1cccc(CN2C(=O)c3cc4ccccc4n3CC2(C)C(=O)NCCC(C)C)c1OC (stereo not given),2.31%,0%,4.84%,-1.84%,-0.8%
Cc1ccc(N2C(=O)c3cc(-c4cccs4)nn3CC2(C)C(=O)NC2CCCCCC2)cc1 (stereo not given),-2.95%,0.395%,1.13%,2.11%,-2.96%
Cc1ocnc1C(=O)N1CCC2(CCCN(CCCc3ccccc3)C2=O)C1 (stereo not given),1.73%,3.31%,0.854%,-1.81%,-0.291%
COC(=O)C(N)Cc1ccc(Cl)cc1 (stereo not given),-10.1%,-2.03%,-2.35%,-12.1%,-1.83%
Cc1cc2c(cc1NS(=O)(=O)c1ccc3c(c1)n(C)c(=O)n3C)n(C)c(=O)n2C,-13.6%,3.9%,-4%,-11.6%,-2.01%
CCn1c(=O)n(CC)c2cc(S(=O)(=O)N3CCN(c4ccc(C)cc4C)CC3)ccc21,3.63%,0%,1.22%,-3.23%,4.02%
CCOCCCNC(=O)N1Cc2c(sc3c2CCCC3)-n2cccc2C1c1ccc(C)cc1 (stereo not given),-4.91%,0%,10.3%,-0.146%,-0.573%
